Some of the results follow.
Key:
Experiment in all cases: glycan array binding signal (z-score within array); higher = stronger binding
Details in all cases: glycan notation: IUPAC condensed, linker removed
[1] = biological target: Neu5Ac(a2-3)Gal(b1-4)Glc
Summary of the method: (§1)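 Glycan array data were curated from 3228 arrays in the Consortium for Functional Glycomics database and kept only where the protein sequence was available. Glycan names were converted to IUPAC-condensed notation, and columns mapping to the same glycan were averaged. The binding signal is a within-array Z-score, averaged across arrays of the same protein sequence at different concentrations or buffers and across linkers. Negative Z-scores can be read as non-binding.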

[2] = biological target: Neu5Ac(a2-3)Gal(b1-4)GlcNAc
Summary of the method: as §1

[3] = biological target: Neu5Ac(a2-3)Gal(b1-4)GlcNAc(b1-2)Man
Summary of the method: as §1

[4] = biological target: Neu5Ac(a2-3)Gal(b1-4)GlcNAc(b1-2)Man(a1-3)[GlcNAc(b1-4)][Neu5Ac(a2-3)Gal(b1-4)GlcNAc(b1-2)Man(a1-6)]Man(b1-4)GlcNAc(b1-4)GlcNAc
Summary of the method: as §1

[5] = biological target: Neu5Ac(a2-3)Gal(b1-4)GlcNAc(b1-2)Man(a1-3)[Neu5Ac(a2-3)Gal(b1-4)GlcNAc(b1-2)Man(a1-6)]Man(b1-4)GlcNAc(b1-4)GlcNAc
Summary of the method: as §1

[6] = biological target: Neu5Ac(a2-3)Gal(b1-4)GlcNAc(b1-2)Man(a1-3)[Neu5Ac(a2-3)Gal(b1-4)GlcNAc(b1-2)Man(a1-6)]Man(b1-4)GlcNAc(b1-4)[Fuc(a1-6)]GlcNAc
Summary of the method: as §1

[7] = biological target: Neu5Ac(a2-3)Gal(b1-4)GlcNAc(b1-2)Man(a1-3)[Neu5Ac(a2-6)Gal(b1-4)GlcNAc(b1-2)Man(a1-6)]Man(b1-4)GlcNAc(b1-4)GlcNAc
Summary of the method: as §1

[8] = biological target: Neu5Ac(a2-3)Gal(b1-4)GlcNAc(b1-2)[Neu5Ac(a2-3)Gal(b1-4)GlcNAc(b1-4)]Man(a1-3)[GlcNAc(b1-4)][Neu5Ac(a2-3)Gal(b1-4)GlcNAc(b1-2)[Neu5Ac(a2-3)Gal(b1-4)GlcNAc(b1-6)]Man(a1-6)]Man(b1-4)GlcNAc(b1-4)GlcNAc
Summary of the method: as §1

[9] = biological target: Neu5Ac(a2-3)Gal(b1-4)GlcNAc(b1-2)[Neu5Ac(a2-3)Gal(b1-4)GlcNAc(b1-4)]Man(a1-3)[GlcNAc(b1-4)][Neu5Ac(a2-3)Gal(b1-4)GlcNAc(b1-4)Man(a1-6)]Man(b1-4)GlcNAc(b1-4)GlcNAc
Summary of the method: as §1

[10] = biological target: Neu5Ac(a2-3)Gal(b1-4)GlcNAc(b1-2)[Neu5Ac(a2-3)Gal(b1-4)GlcNAc(b1-6)]Man(a1-6)[Neu5Ac(a2-3)Gal(b1-4)GlcNAc(b1-2)Man(a1-3)]Man(b1-4)GlcNAc(b1-4)GlcNAc
Summary of the method: as §1

[11] = biological target: Neu5Ac(a2-3)Gal(b1-4)GlcNAc(b1-2)[Neu5Ac(a2-3)Gal(b1-4)GlcNAc(b1-6)]Man(a1-6)[Neu5Ac(a2-3)Gal(b1-4)GlcNAc(b1-2)Man(a1-3)][GlcNAc(b1-4)]Man(b1-4)GlcNAc(b1-4)GlcNAc
Summary of the method: as §1

[12] = biological target: Neu5Ac(a2-3)Gal(b1-4)GlcNAc(b1-3)Gal
Summary of the method: as §1

[13] = biological target: Neu5Ac(a2-3)Gal(b1-4)GlcNAc(b1-3)Gal(b1-3)GlcNAc
Summary of the method: as §1

[14] = biological target: Neu5Ac(a2-3)Gal(b1-4)GlcNAc(b1-3)Gal(b1-4)GlcNAc
Summary of the method: as §1

[15] = biological target: Neu5Ac(a2-3)Gal(b1-4)GlcNAc(b1-3)Gal(b1-4)GlcNAc(b1-2)Man(a1-3)[Neu5Ac(a2-3)Gal(b1-4)GlcNAc(b1-3)Gal(b1-4)GlcNAc(b1-2)Man(a1-6)]Man(b1-4)GlcNAc(b1-4)GlcNAc
Summary of the method: as §1

[16] = biological target: Neu5Ac(a2-3)Gal(b1-4)GlcNAc(b1-3)Gal(b1-4)GlcNAc(b1-3)Gal(b1-4)GlcNAc
Summary of the method: as §1

[17] = biological target: Neu5Ac(a2-3)Gal(b1-4)GlcNAc(b1-3)Gal(b1-4)GlcNAc(b1-3)Gal(b1-4)GlcNAc(b1-2)Man(a1-3)[Neu5Ac(a2-3)Gal(b1-4)GlcNAc(b1-3)Gal(b1-4)GlcNAc(b1-3)Gal(b1-4)GlcNAc(b1-2)Man(a1-6)]GalNAc
Summary of the method: as §1

[18] = biological target: Neu5Ac(a2-3)Gal(b1-4)GlcNAc(b1-3)Gal(b1-4)GlcNAc(b1-3)GalNAc
Summary of the method: as §1

[19] = biological target: Neu5Ac(a2-3)Gal(b1-4)GlcNAc(b1-3)Gal(b1-4)GlcNAc(b1-3)[Neu5Ac(a2-3)Gal(b1-4)GlcNAc(b1-3)Gal(b1-4)GlcNAc(b1-6)]GalNAc
Summary of the method: as §1

[20] = biological target: Neu5Ac(a2-3)Gal(b1-4)GlcNAc(b1-3)Gal(b1-4)GlcNAc(b1-6)[Gal(b1-3)]GalNAc
Summary of the method: as §1

[21] = biological target: Neu5Ac(a2-3)Gal(b1-4)GlcNAc(b1-3)Gal(b1-4)[Fuc(a1-3)]GlcNAc
Summary of the method: as §1

[22] = biological target: Neu5Ac(a2-3)Gal(b1-4)GlcNAc(b1-3)GalNAc
Summary of the method: as §1

[23] = biological target: Neu5Ac(a2-3)Gal(b1-4)GlcNAc(b1-3)[Neu5Ac(a2-3)Gal(b1-4)GlcNAc(b1-6)]GalNAc
Summary of the method: as §1

[24] = biological target: Neu5Ac(a2-3)Gal(b1-4)GlcNAc(b1-6)GalNAc
Summary of the method: as §1

[25] = biological target: Neu5Ac(a2-3)Gal(b1-4)GlcNAc(b1-6)[Gal(b1-3)]GalNAc
Summary of the method: as §1

[26] = biological target: Neu5Ac(a2-3)Gal(b1-4)GlcNAc(b1-6)[Neu5Ac(a2-3)Gal(b1-3)]GalNAc
Summary of the method: as §1

[27] = biological target: Neu5Ac(a2-3)Gal(b1-4)GlcNAc6S
Summary of the method: as §1

[28] = biological target: Neu5Ac(a2-3)Gal(b1-4)[Fuc(a1-3)]GlcNAc
Summary of the method: as §1

[29] = biological target: Neu5Ac(a2-3)Gal(b1-4)[Fuc(a1-3)]GlcNAc(b1-2)Man
Summary of the method: as §1

[30] = biological target: Neu5Ac(a2-3)Gal(b1-4)[Fuc(a1-3)]GlcNAc(b1-3)Gal
Summary of the method: as §1

[31] = biological target: Neu5Ac(a2-3)Gal(b1-4)[Fuc(a1-3)]GlcNAc(b1-3)Gal(b1-4)GlcNAc
Summary of the method: as §1

[32] = biological target: Neu5Ac(a2-3)Gal(b1-4)[Fuc(a1-3)]GlcNAc(b1-3)Gal(b1-4)[Fuc(a1-3)]GlcNAc(b1-3)Gal(b1-4)[Fuc(a1-3)]GlcNAc
Summary of the method: as §1

[33] = biological target: Neu5Ac(a2-3)Gal(b1-4)[Fuc(a1-3)]GlcNAc(b1-3)GalNAc
Summary of the method: as §1

[34] = biological target: Neu5Ac(a2-3)Gal(b1-4)[Fuc(a1-3)]GlcNAc(b1-6)[Gal(b1-3)]GalNAc
Summary of the method: as §1

[35] = biological target: Neu5Ac(a2-3)Gal(b1-4)[Fuc(a1-3)]GlcNAc(b1-6)[Neu5Ac(a2-3)Gal(b1-3)]GalNAc
Summary of the method: as §1

[36] = biological target: Neu5Ac(a2-3)Gal(b1-4)[Fuc(a1-3)]GlcNAc6S
Summary of the method: as §1

[37] = biological target: Neu5Ac(a2-3)Gal6S(b1-4)GlcNAc
Summary of the method: as §1

[38] = biological target: Neu5Ac(a2-3)Gal6S(b1-4)[Fuc(a1-3)]GlcNAc
Summary of the method: as §1

B1: Cohesin-hDCIR (Homo sapiens) (protein)
chain: LDDLDAVRIKVDTVNAKPGDTVRIPVRFSGIPSKGIANCDFVYSYDPNVLEIIEIEPGDIIVDPNPDKSFDTAVYPDRKIIVFLFAEDSGTGAYAITKDGVFATIVAKVKEGAPNGLSVIKFVEVGGFANNDLVEQKTQFFDGGANVGDTTEPATPTTPVTTPTTTDDLDAASQKYSQLLEKKTTKELVHTTLECVKKNMPVEETAWSCCPKNWKSFSSNCYFISTESASWQDSEKDCARMEAHLLVINTQEEQDFIFQNLQEESAYFVGLSDPEGQRHWQWVDQTPYNESSTFWHPREPSDPNERCVVLNFRKSPKRWGWNDVNCLGPQRSVCEMMKIHLHHHHHH
glycan array binding signal (z-score) [1]: -0.005 | glycan array binding signal (z-score) [2]: 0.035 | glycan array binding signal (z-score) [3]: 0.375 | glycan array binding signal (z-score) [4]: -0.66 | glycan array binding signal (z-score) [5]: -0.589 | glycan array binding signal (z-score) [6]: -0.586 | glycan array binding signal (z-score) [7]: -0.547 | glycan array binding signal (z-score) [8]: -0.508 | glycan array binding signal (z-score) [9]: -0.53 | glycan array binding signal (z-score) [10]: -0.511 | glycan array binding signal (z-score) [11]: -0.467 | glycan array binding signal (z-score) [12]: -0.585 | glycan array binding signal (z-score) [13]: -0.657 | glycan array binding signal (z-score) [14]: -0.516 | glycan array binding signal (z-score) [15]: -0.438 | glycan array binding signal (z-score) [16]: 0.494 | glycan array binding signal (z-score) [17]: 0.024 | glycan array binding signal (z-score) [18]: -0.034 | glycan array binding signal (z-score) [19]: 0.538 | glycan array binding signal (z-score) [20]: 0.001 | glycan array binding signal (z-score) [21]: 0.992 | glycan array binding signal (z-score) [22]: -0.23 | glycan array binding signal (z-score) [23]: 0.114 | glycan array binding signal (z-score) [24]: 2.14 | glycan array binding signal (z-score) [25]: -0.58 | glycan array binding signal (z-score) [26]: 0.272 | glycan array binding signal (z-score) [27]: -0.518 | glycan array binding signal (z-score) [28]: -0.342 | glycan array binding signal (z-score) [29]: -0.276 | glycan array binding signal (z-score) [30]: -0.674 | glycan array binding signal (z-score) [31]: -0.056 | glycan array binding signal (z-score) [32]: -0.669 | glycan array binding signal (z-score) [33]: -0.024 | glycan array binding signal (z-score) [34]: -0.187 | glycan array binding signal (z-score) [35]: -0.28 | glycan array binding signal (z-score) [36]: 0.027 | glycan array binding signal (z-score) [37]: -0.608 | glycan array binding signal (z-score) [38]: -0.602

From the supplement of paper PMC8728848
